Whole data set: some 33,000 sequences, median “E-score (-0.5 to 0.5)” near -0.032, cut for the highest 2% near 0.36. The list shows a part of the results.
Target: T1, Sko1 (UniProt Q02100)
T1 sequence: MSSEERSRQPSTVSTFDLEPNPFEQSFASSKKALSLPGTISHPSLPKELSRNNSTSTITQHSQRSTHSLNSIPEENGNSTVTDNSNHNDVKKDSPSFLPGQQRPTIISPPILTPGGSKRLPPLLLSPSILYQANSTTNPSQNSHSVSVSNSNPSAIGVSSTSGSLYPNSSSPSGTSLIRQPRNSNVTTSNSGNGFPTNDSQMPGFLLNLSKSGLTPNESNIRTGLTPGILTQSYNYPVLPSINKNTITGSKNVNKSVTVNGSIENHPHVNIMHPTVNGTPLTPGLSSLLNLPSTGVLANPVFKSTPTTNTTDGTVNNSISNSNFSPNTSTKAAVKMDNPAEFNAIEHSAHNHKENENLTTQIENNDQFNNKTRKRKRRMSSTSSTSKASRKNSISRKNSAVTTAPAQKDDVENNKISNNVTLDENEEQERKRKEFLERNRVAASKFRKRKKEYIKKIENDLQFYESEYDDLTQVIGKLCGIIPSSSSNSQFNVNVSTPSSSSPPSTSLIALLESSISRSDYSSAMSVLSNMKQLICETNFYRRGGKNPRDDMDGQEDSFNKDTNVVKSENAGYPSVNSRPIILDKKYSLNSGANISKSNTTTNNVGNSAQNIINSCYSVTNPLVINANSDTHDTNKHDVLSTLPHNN
Assay: PBM E-score (8-mer binding enrichment) (E-score (-0.5 to 0.5)); higher = stronger / more preferred TF binding; most listed sequences are background and not binding sites
Conditions: protein concentration: 200 nM; construct: GST-full length
How it was run: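 The E-score, a modified Wilcoxon-Mann-Whitney statistic, was computed by the Universal PBM Analysis Suite for every ungapped eight-base word pooled with its reverse complement. Scans behind it were normalised with masliner after bound GST-tagged yeast transcription factors were detected with fluorescent anti-GST. The proteins, at about 100-200 nM, had been applied to universal all-10-mer Agilent arrays made double-stranded by primer extension.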

Sequence | PBM E-score
CAGCCTAA | -0.0852
AAGGGACT | -0.253
GACACAGA | -0.0171
ACGGACAC | 0.0624
CTCCTCGA | -0.103
CTTCGCGC | 0.217
CAACACGG | -0.0807
CCAACTAC | -0.0348
CCATCGAG | 0.0626
TATTAATA | 0.0036
CCGCTCAG | -0.255
CAACATAC | 0.137
GAGTGCGA | -0.168
CTTAAGCC | -0.03
CCCAACGC | 0.0735
ACTTCACA | 0.0677
CAGAGCAG | -0.127
ACAAGAAT | 0.0785
AATTGTAC | 0.173
ACGGCCCG | -0.139
ACTCTCTC | -0.281
ATGCGTTG | 0.227
AGTATACA | 0.0979
ACTGTTTG | 0.0323
GACTTAAA | 0.111

Sequence | PBM E-score
CTGGGAAC | -0.159
ACTTTGGA | 0.111
GCATCCAC | 0.0302
GGTTTAAC | -0.0299
ACTGTCCG | -0.0736
TACAACAA | 0.134
CGCTGAGA | -0.0923
TGCGTACA | 0.36
CTGTGGTA | -0.102
AACCTTAC | 0.187
GCCAGAAA | -0.0522
CCATATAC | 0.0864
CAGCAGTC | -0.247
ACACTTCT | -0.0233
AGGGCGGC | -0.324
ATTGATAG | 0.119
CTATGAAA | 0.0218
ATATAACA | 0.177
GACACCTA | -0.0329
GTTCATAA | 0.0324
AATCTACC | 0.0629
GTCTGTTA | 0.0537
GGGACCAC | -0.0246
AGGTACTG | -0.125
ACGGAGAT | -0.163

Sequence | PBM E-score
AAATTAAC | 0.0269
AGCCGATG | -0.224
ATTAGACA | 0.125
TTTCGAAA | 0.124
CCTCGTTC | -0.161
TATTACGA | 0.414
AATCCCAA | -0.134
ATCAAACA | 0.102
ATATTGAT | 0.218
CGGGGCCA | -0.238
CACACCTA | -0.0184
ACGCATAT | 0.225
ACTGGCAT | -0.13
CAATTATG | 0.159
CATGATAA | 0.182
CGGCTCAG | -0.00571
TGTAGACA | 0.16
ACGCATAG | 0.102
CTCGGAAC | -0.0712
ATCGTGTA | 0.0684
CTGTTCTA | -0.18
ACGCATCT | 0.203
GCATGTCC | -0.216
CAGTCGCA | -0.125
ACCGAATC | -0.0827

Sequence | PBM E-score
ACAAGCGC | -0.257
CTGCCACC | -0.066
ATTTTTGA | 0.208
AAGTGGTA | -0.0655
AAGAAATG | 0.0342
CCTCACCA | -0.0409
AGGGCTCG | -0.162
ACCGAGGG | -0.402
CCCGGGTC | -0.204
CGGGTAAA | 0.0643
AGCGCGGC | -0.21
CTACTCTA | 0.161
ATTTGGTA | 0.218
CGATTAAA | 0.176
GATCTGAC | 0.161
AGCGTTCC | -0.0745
CTATTGAG | 0.0635
GATTAATC | -0.0808
CATCCTCG | -0.136
ATATTATG | 0.276
GTCGCTAA | 0.107
ATATGCAA | 0.138
AACTATTA | 0.17
CCAACGAG | -0.11
CTGGTCCC | -0.259

Sequence | PBM E-score
ACTTAATG | 0.105
ATTATTTC | 0.23
AGGCCGTG | -0.26
AAGTAATT | 0.3
CACAACGC | 0.133
CCTCCCAG | -0.256
GAATGCGA | 0.0115
AGTAGCTA | 0.107
CTATCCAG | -0.15
GTTTCGGA | 0.0239
GGTAGCAC | -0.314
AGCATACA | 0.107
CTCAAGCC | -0.143
CGGTGGAG | -0.292
GAGAGAGC | -0.214
CGGCCGAA | -0.118
AGCCTTAT | -0.105
GGGATCAA | -0.0379
GACGGACA | 0.121
ATTGTCTC | 0.0231
CGCCATGA | 0.033
TACTGTAA | 0.0851
TGAAACCA | -0.0489
CAACTCGA | 0.078
AGTAGGCG | -0.194

Sequence | PBM E-score
CTATAGTA | -0.0415
ACGACTGA | 0.0428
ATTTCAAA | 0.136
GGTGGGAA | -0.145
CCTCCGCC | -0.271
CACGCGCA | 0.154
AATAGCTG | 0.0774
CGAGATGC | -0.0188
ATCCTTGA | -0.177
AATTTCCG | 0.0523
ATATCAGG | 0.0507
GGGACCCA | -0.357
ACCCTCAA | -0.295
AGACGTGA | 0.312
AACTGAGC | -0.224
CCGATAGG | -0.14
CGTCATGC | 0.469
ATCAATGG | -0.0791
AGACATGG | -0.0226
GTTTGTGA | 0.174
AGGAGAAT | -0.0915
AGTTGATC | 0.0555
ACTGCCAA | -0.0083
ACGAACGA | 0.195
AGAATATC | -0.036

Sequence | PBM E-score
AAGGTCTC | -0.147
AACCCCTG | -0.362
TTCGCAAA | 0.142
GCAACGAA | 0.148
ATCTAAAC | 0.0182
AATTGATG | 0.217
AACAGGTT | -0.0299
AGTTCATG | -0.13
CAATCAGC | 0.00606
CATGCGCC | 0.0445
CCCAGCGC | -0.229
AATTGCAA | 0.0646
ACCGACTG | -0.234
AACAAAAC | 0.142
ATAACAGA | 0.188
CAGTAGGA | -0.178
AAATCCTT | -0.118
AGGGTTGA | -0.0646
CACCGGTC | -0.344
TACCGGCA | -0.163
CTCGAATC | -0.112
CCCGGGCA | -0.386

From the supplement of paper PMC3334620
